Reference: ChEMBL document CHEMBL4888484, “Replenishing the malaria drug discovery pipeline: Screening and hit evaluation of the MMV Hit Generation Library 1 (HGL1) against asexual blood stage Plasmodium falciparum ,using a nano luciferase reporter read-out” (2022)
Out of some 150,000 compounds screened, about 540 (0.36%) showed an effect of 50% or more. The list shows a part of the results.

Test system: Plasmodium falciparum
Assay: Primary screen in NF54 nanoGlo assay, in single point, at 2uM, 72h; a lower Z score goes with more inhibition
Format: functional, Erythrocyte
Settings: timepoint 72 hour

Compound	% Inhibition [%]	Z score
Cc1ccc(CN2CCCN(C(=O)c3cnsn3)CC2)cc1	8	-1
O=C1Nc2ccc(-c3ccccc3F)cc2C(=O)N2CCN(C(=O)C3CCNCC3)C[C@H]12	-1	0.17
CC(C)N(C)C(=O)Cc1ccc(N)cc1	-13	1.23
Cc1ccccc1CN1CCCN([C@@H](C)C(=O)N2CCOCC2)CC1	-12	2.21
CC(C)[C@@H](O)C(=O)N1CCc2onc(-c3cccc4ccccc34)c2C1	-17	2.13
CN(CC(=O)OC1CCCCCC1)S(=O)(=O)c1cccnc1	8	-0.79
CCCN(CC)c1ccc(C(=O)O[C@H]2C(=O)OCC2(C)C)cc1	-6	0.75
CC(C)N(CCOCCO)C(=O)Nc1ccc(F)cc1C#N	13	-1.64
N#Cc1c(F)cccc1NCc1csc(C2CC2)n1	-8	1.16
COc1ccc(CN(C)C(=O)[C@H]2CCN(C)C(=O)C2)c(OC)c1	-11	1
O=S(=O)(c1ccccc1OCC1CC1)N1CC(CO)C1	-3	0.37
O=C(O)c1ccc(CN2CC[C@@](O)(Cc3ccc(F)cc3)C2)cc1Cl	-6	0.65
Nc1c2c(-c3ccccc3F)nc(N3CCN(c4ccccc4)CC3)nc2nn1-c1ccc(Cl)cc1	-2	0.26
COc1ccc(C(=O)N2CC[C@H](c3nc(-c4cccn4C)no3)C2)c(OC)c1	-12	1.73
FC1(F)Oc2cccc(-c3ccc(CN4CCCC4)cn3)c2O1	-2	0.2
Cn1cccc1-c1noc(CNC(=O)c2ccc(=O)[nH]c2)n1	-21	2.64
CCn1cc([C@@H]2CN(C(=O)Cc3csc(NC(=O)C(C)C)n3)CCO2)cn1	-5	0.88
Cc1ncccc1C(=O)N1c2ccccc2C[C@H]1c1nc(C2CC2)no1	-5	0.94
COCCN1CCC[C@@]2(CCN(Cc3cccc4cccnc34)C2)C1	-18	2.37
CC(C)[C@@H]1N(C(=O)c2ccnn2C(C)C)CC12CCC2	8	-1.11
CCN(CCN(C)C)C(=O)Nc1ccc(OC(F)F)cc1C	0	-0.05
CCCn1c(=O)cc(-c2ccccc2)c2ccc(OCC(=O)NCC3CC3)cc21	8	-0.91
CC(C)Oc1ccc(-c2ccc(NC(=O)N(C)Cc3cn(C)nn3)c(F)c2)cc1	8	-0.91
C[C@H](NC(=O)C(C)(C)S(C)(=O)=O)c1ccc(Cl)cn1	-11	1.63
COC1CCN(C[C@H]2CCCCCN2C(=O)Nc2ccccc2)CC1	-5	0.83
CCc1nc(C)c(-c2c(C)c(-c3cnn(C)c3)nc(N)c2C#N)[nH]1	3	-0.66
Cc1cnc(NC(=O)CCC(C)C)s1	-14	1.26

Compound	% Inhibition [%]	Z score
CO[C@H]1C[C@@H](O)C12CCN(C(=O)c1cccc(Oc3ccccc3)c1)CC2	-12	2.28
CN(CC1CC1)C(=O)CN(CC(=O)N(C)CC1CC1)Cc1cccnc1	-4	0.69
Cc1ccc(N2CCCN(Cc3cccc(OC(F)(F)F)c3)C2=O)c(NC(=O)Cc2ccccc2)c1	16	-3.06
CC(C)(C)OC(=O)CCC(=O)N1CCCOc2ccccc21	-4	0.51
O=C(NC[C@H](O)c1csc2ccccc12)c1ccsc1	10	-1.29
Cc1ncsc1NC(=O)Cc1csc(Cc2cccc(Cl)c2)n1	-1	0.13
CCCC[C@H](NC(=O)OCc1ccccc1)C(=O)O	-19	2.39
O=C(c1cscn1)N1CCCc2c(F)cc(Br)cc21	1	-0.12
Cc1ccccc1NC(=O)Cc1nnc(N)s1	40	-4.57
CCCCC1C2C(=O)N(c3ccccc3C)C(=O)C2ON1c1ccccc1 (stereo not drawn)	-7	0.76
CC[C@@](C)(C(=O)Nc1ccc(N2CCOCC2)cc1)N(Cc1cccnc1)C(=O)Cn1nnc2ccccc21	-32	3.74
CN(CC(=O)NC[C@H]1CCCO1)Cc1ccc(Br)o1	-4	0.57
CCC[C@H]1c2nc[nH]c2CCN1Cc1ccnn1-c1ccccc1	-4	0.81
CCOc1ccc(Cl)cc1CN(C)CCCS(=O)(=O)N(C)C	-8	0.88
CC(NC(=O)N1CCCC(O)CC1)c1ccc(F)c2ccccc12 (stereo not drawn)	-10	1.09
COCCOc1cc(C)c2c(c1C)C[C@H]([C@H](C)C(=O)NC1CCCC1)CC2	-2	0.24
CCCN(CCC)S(=O)(=O)c1c(C)nn(Cc2ccon2)c1C	3	-0.29
CCn1cc(C2OCCC2CNCc2ccccn2)cn1 (stereo not drawn)	-9	1.21
Cn1cc(CCC(=O)N(C2CCCCC2)[C@H]2CCS(=O)(=O)C2)cn1	11	-1.41
O=C(Cn1nc(C(F)F)c2c1CCC2)NC1CCCCCC1	6	-0.97
C=CCN(C(=O)c1cc(-c2ccccc2)on1)[C@H]1CCS(=O)(=O)C1	-1	0.06
CC(C)C[C@@H](C(=O)N[C@@H](Cc1ccccc1)C(=O)O)n1c(=O)[nH]c2ccccc2c1=O	3	-0.44
C#CCN(Cc1nnc(C(=O)Nc2ccc(CC)cc2)s1)[C@H]1CCc2ccccc21	-10	1.51
O=C(Nc1ccc(-c2ncco2)cc1)N[C@H]1CCCC[C@@H]1O	28	-3.21
COc1ccc(S(=O)(=O)N2CCOCC2)cc1NC(=O)CN1CCCC1	4	-0.74
N#Cc1cccc(NC(=O)CN2N=C(c3ccccc3)c3ccccc3S2(=O)=O)c1	-14	1.32
Cc1ccc(NC(=O)CCc2c(C)nn(-c3ccccc3C)c2Oc2cccc(C)c2)cc1	-4	0.51
